Experimental findings from PubChem BioAssay (Tox21) are described below.

Records with an inconclusive call do not appear. The call rests on the fitted dose curve; in most records, active means well fitted curve in the direction sought with a large enough effect in the repeat runs; inconclusive means weak or mixed curves; inactive means no such curve, though single readings can be large; an effect the other way counts as inactive or inconclusive. Some structures have more than one record in an assay (separate samples or runs), and their calls can disagree. A number of entries come with more than one value. This list holds those alone. An entry can have further records. Results that share an entry are repeated measurements across runs, samples, wells, individuals or studies. Brackets tell where a record comes from. Letters hold for one entry only.
Potency means the concentration at half of the fitted maximal effect.

A short description of the first assay: qHTS assay to identify small molecule antagonists of the thyroid receptor (TR) signaling pathway (AID 743065). Further: nearly all actives have a fitted effect of over 55% in size. The note with it: GH3.TRE-Luc, T3-stimulated luciferase inhibition, 23.5 h; series mostly up to 70.3 µM. The essentials:
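GH3.TRE-Luc rat pituitary cells carrying two TR response elements driving luciferase were plated for 4 h, given compound plus 1 nM T3 (final), and incubated 23.5 h at 37 C. ONE-Glo luminescence measured reporter inhibition; CellTiter-Fluor fluorescence tracked cytotoxicity.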
(In general: In qHTS, concentration-response curves come from the screen itself.)
`CCCCC/C=C\C/C=C\CCCCCCCC(=O)OC`: the Potency entry was “inactive [sample A] and active: 54.5 µM [sample B]”.
On to `OCC#CCO`, for which the Potency result is “inactive [sample A] and active: 27.3 µM [sample B]”.
As to `CC1=C(/C=C/C(C)=C/C=C/C(C)=C/CO)C(C)(C)CCC1`, the Potency entry was “inactive [sample A] and active: 61.9 µM [sample B]”.

A short description of the next assay: qHTS assay to identify small molecule agonists of the constitutive androstane receptor (CAR) signaling pathway - cell viability counter screen (AID 1224836). Further: nearly all actives have a fitted effect of over 45% in size. Particulars: HepG2-CYP2B6-hCAR viability, CellTiter-Fluor, 23 h, PK11195 added to every well; series mostly up to 92.4 µM. The source says:
U.S. Tox21 Program National Center for Advancing Translational Sciences [NCATS] NIH Chemical Genomics Center [NCGC] U.S. Environmental Protection Agency [EPA] National Institutes of Environmental Health Sciences [NIEHS] National Toxicology Program [NTP] U.S. Food and Drug Administration [FDA] Tox21 Assay Overview: The constitutive androstane receptor (CAR) is a nuclear receptor which regulates multiple drug metabolizing enzymes (DMEs) and transporters. Activating CAR will generally increase the transcription and subsequent translation of CYP2B6 and CYP3A4. These two DMEs represent about 50% of the drug metabolizing potential in the body. […] Recently, there have also been studies performed indicating CARs role in energy metabolism and cancer therapy. Therefore, inducing CARs activity could have a potential effect on diabetes and cancer. Identifying environmental toxins and compounds which modulate CAR, through the use of the Tox21 10K compound collection, will be an important step in determining the toxicity and potential therapeutic effects these factors will have on the human body. To differentiate true CAR agonists from cytotoxic substances, the assay is multiplexed with a cell viability assay.
Tox21 Assay Protocol Summary: A double-stable (hCAR and CYP2B6-2.2kb) transfected cell line, derived from human hepatoma (HepG2) cells, was utilized for the duration of the quantitative high-throughput screens. The HepG2-CYP2B6-hCAR cells were dispensed at 2500 cells/4 uL/well in 1536-well white solid bottom plates using a Multidrop Combi. After the assay plates were incubated at 37 C/5% CO2 for 4 hrs, 23 nL of compounds at 15 concentrations (from 5-48 columns) or positive control (from 1 to 4 columns) were transferred to the assay plates using a Pintool station. One uL of PK11195 (final concentration = 0.75 uM) was added, using a Flying Reagent Dispenser, inside each well. After a 23 hr incubation period at 37 C/5% CO2, 1 uL of CellTiter-Fluor reagent was added into each well of the assay plates using a Flying Reagent Dispenser. The fluorescence intensity in the plates was then measured using a ViewLux plate reader.
With `COC(=O)c1ccc(C(=O)OC)cc1`, the Potency result was “active: 17.5 µM [sample A] and inactive [sample B]”.
`CS(=O)(=O)Nc1ccc([N+](=O)[O-])cc1Oc1ccccc1`: the Potency result was “active: 48.6 µM [sample A] and inactive [sample B]”.
Regarding `Cc1cc(O)c2c(c1)C(=O)c1cc(O)cc(O)c1C2=O`, the Potency entry was “inactive [sample A] and active: 54.5 µM [sample B]”.
Same read-out and setting: the same measure for `CCCCC(CC)COC(=O)CCCCCCCC(=O)OCC(CC)CCCC` (centres undefined): “active: 19.3 µM [sample A] and inactive [sample B]”.

The nature of another assay: qHTS assay to identify small molecule antagonists of the estrogen receptor alpha (ER-alpha) signaling pathway using the BG1 cell line in the presence of 0.1 nM 17-beta-estradiol - cell viability counter screen (AID 1259241). Further: nearly all actives have a fitted effect of over 40% in size. The note with it: VM7Luc4E2 (BG1) viability, CellTiter-Fluor protease, 22 h, 0.1 nM estradiol agonist added; series mostly up to 92.4 µM. The essentials:
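In this screen, hormone-deprived VM7Luc4E2 cells were seeded at 4,000 per well, dosed with compound and 0.1 nM estradiol final, and incubated 22 hr at 37C and 5% CO2; fluorogenic live-cell protease signal reported viability.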
For the compound `COC(=O)c1ccc(C(=O)OC)cc1`, the Potency entry was “active: 22 µM [sample A] and inactive [sample B]”.
Turning to `Cc1cc(O)c2c(c1)C(=O)c1cc(O)cc(O)c1C2=O`, the Potency result is “inactive [sample A] and active: 21.7 µM [sample B]”.
In the case of `CCCCC(CC)COC(=O)CCCCCCCC(=O)OCC(CC)CCCC` (centres undefined), the Potency result was “active: 30.6 µM [sample A] and inactive [sample B]”.

The nature of the next assay: qHTS assay to identify small molecule antagonists of the progesterone receptor (PR) signaling pathway - cell viability counter screen (AID 1346798). Further: nearly all actives have a fitted effect of over 50% in size. The note with it: PR-UAS-bla HEK293T viability, CellTiter-Glo luminescence, 16 h; series mostly up to 92.4 µM. In a few lines:
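In the same plates used for the beta-lactamase readout, cell viability of compound- and R5020-treated PR-UAS-bla HEK293T cells (16 hr, 37C) was assessed by CellTiter-Glo luminescence.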
For `COC(=O)c1ccc(C(=O)OC)cc1`, the Potency entry is “active: 7.8 µM [sample A] and inactive [sample B]”.
For the compound `c1ccc2[nH]cnc2c1`, the Potency result was “active: 2.16 µM [sample A] and inactive [sample B]”.
On the same count and under the same terms, the same measure for `CCCCCCOC(C)=O`: “inactive [sample A] and active: 19.3 µM [sample B]”.
On to `CCCCC(CC)COC(=O)CCCCCCCC(=O)OCC(CC)CCCC` (centres undefined), for which the Potency result was “active: 17.2 µM [sample A] and inactive [sample B]”.
